Structures are written as SMILES.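 Method: 48-hour compound exposure of cells in 96-well plates, five concentrations, linear interpolation of endpoints. GI50 is the concentration that inhibits growth by half.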 Activity calls are given as the source filed them. Cut-off read from the data, not from the text of the source: active = GI50 up to about 1.1 µM and inactive = higher. Some results are limits rather than exact numbers.

The subject of this assay is NCI-H322M. As to the kind of experiment: DTP human tumour cell line panel, 48 h.
In general, GI50 refers to the concentration at which growth is held to half of that of the control. Consider `CCC1(N)C(=O)OCc2c1cc1n(c2=O)Cc2cc3ccccc3nc2-1` (centres undefined), for which the GI50 is inactive: 27.1 µM.
The result for `N=c1oc2cc(O)c(O)cc2cc1C(N)=O` reads inactive: > 100 µM.
Consider `O=C(CCc1ccc(O)c(O)c1)OCCc1ccccc1`, for which the GI50 is inactive: 56.8 µM.
With `N#Cc1ccc(/C=C(/C(=O)c2ccccc2)c2ccccc2)cc1`, the GI50 was inactive: 14.5 µM.
The result for `O=C1CCC2COc3ccc(O)c1c32` (centres undefined) reads inactive: > 100 µM; that for `COC(=O)c1c(OC(C)=O)ccc2c1c1c(OC(C)=O)c3ccccc3c(OC(C)=O)c1n2C`, inactive: 29.4 µM.
Next, `COC(C)(C)[C@@H](O)[C@H]1C[C@H](C)[C@@]2(CC[C@]3(C)[C@@H]2CC[C@@H]2[C@@]4(C)CC[C@@H](OC(C)=O)C(C)(C)[C@@H]4C[C@@H](OC4OC(COC(C)=O)C(O)C(O)C4O)[C@]23C)O1` (some centres undefined): inactive: 2.01 µM; `Cc1cccc(/C=N/N=C(\N)NO)n1`: inactive: 87.9 µM.
Take `O=C1c2c(ccc3c2CCC3)CC1Cc1ccc2c(c1)CCC2` (centres undefined): the GI50 was inactive: 86.7 µM.
The result for `O=C(O)CSC1=NC(=O)C2(NN1)c1ccccc1-c1ccccc12` reads inactive: > 10 µM; that for `CC1(C)O[C@@H](CBr)C[C@H](C[C@H]2C[C@@H](O)C[C@@H](CCOCc3ccccc3)O2)O1`, inactive: 18.1 µM.
Consider `O=C(C(O)c1cn(Cc2ccccc2)c2ccccc12)N1CCCCC1` (centres undefined), for which the GI50 was inactive: > 100 µM.
Consider `CCOc1ccc(Nc2nc(N)nc(N)c2N=O)cc1`, for which the GI50 was inactive: 51.4 µM.
On to `O=C(c1ccco1)N(C(=O)N1CCN(c2ccccc2)CC1)S(=O)(=O)c1ccccc1`, for which the GI50 is inactive: 88.7 µM.
As to `CCOC(=O)/C(=N\Nc1ccc(-n2c(C)nc3ccccc3c2=O)cc1)C(C)=O`, the GI50 is inactive: 81.8 µM.
Next, `CC1(C)OC(C(N)=O)=C(C(N)=O)O1`: inactive: > 100 µM; `COC(=O)CC1C(=O)OCc2c1cc1n(c2=O)Cc2c-1nc1ccccc1c2OC` (centres undefined): inactive: 63.5 µM; `Cc1nc2nnc(CCCCCCCCc3nnc4nc(C)[nH]n34)n2[nH]1`: inactive: > 100 µM.
Next, `COC1=CC(=O)c2nc3ccccc3c3ccnc1c23`: inactive: 1.92 µM.
The result for `COc1ccc(Nc2nc(N)c(C(=O)c3cccs3)s2)cc1` reads inactive: 7.94 µM; that for `CN1CCN(c2cc3nsnc3c3nsnc23)CC1`, inactive: > 10 µM; that for `COc1ccc(/N=C\c2cc(OC)c(OC)c(OC)c2)cc1`, inactive: > 100 µM.
`CS(=O)(=O)OCC1OC(n2ccc(NC(=O)c3ccccc3)nc2=O)CC1OS(C)(=O)=O` (centres undefined): the GI50 is inactive: > 100 µM.
The result for `O=C1CSC(c2ccc(Cl)cc2)N1c1ccc(Oc2ccc(Cl)cc2)c(Cl)c1` (centres undefined) reads inactive: 15.1 µM.
Next, `CC(C)(C)C1CCC2c3c([nH]c4ccccc34)C3C(=O)N(c4ccc(Br)cc4)C(=O)C3C2C1` (centres undefined): inactive: 41.8 µM.
On to `C[C@@]12CCC(=O)C=C1CC[C@H]1C2=CC[C@]2(C)C1CC[C@@]2(C)O` (some centres undefined), for which the GI50 was inactive: > 100 µM.
In the case of `Nc1ccc(-c2nnc(-c3c(Cl)c(Cl)c(Cl)c(Cl)c3-c3nc4cc(C(=O)c5ccccc5)ccc4[nH]3)o2)cc1`, the GI50 is inactive: 26.1 µM.
Next, `CCOC(=O)NC(=O)c1cn(CCSCCOC(=O)NCCCCCCNC(=O)OCCSCCn2cc(C(=O)NC(=O)OCC)c(=O)n(C)c2=O)c(=O)n(C)c1=O`: inactive: 64.7 µM; `N#CC1=C(N)OC2=C(CCCc3ccc([N+](=O)[O-])cc32)C1c1ccccc1` (centres undefined): inactive: 6.67 µM.
The result for `CSc1nc(C)cc(N(C)c2ccccc2)n1` reads inactive: 51.9 µM; that for `O=C1CSC2(CC(/C=C/c3ccccc3)=NN2c2cccc(S(=O)(=O)O)c2)N1c1nc2ccccc2s1` (centres undefined), inactive: 63.2 µM; that for `c1ccc2c(c1)cc1n2CCc2c-1[nH]c1ccccc21`, inactive: > 10 µM.
Next, `N#CC(C#N)=Cc1ccc(CP(=O)(O)O)cc1`: inactive: > 100 µM; `Cc1nc2c(=O)[nH]ncc2[nH]1`: inactive: > 100 µM.
Take `O=C1C[C@@]23CCC4(CC2CCC[C@H]3O1)OCCO4` (some centres undefined): the GI50 was inactive: > 100 µM.
The result for `CC(C)N(C(=O)c1cccc(C(=O)N(C(C)C)C(C)C)c1)C(C)C` reads inactive: > 100 µM.
Regarding `N#CC(c1ccccc1)N1CCCN(C(C#N)c2ccccc2)C1c1ccccc1O` (centres undefined), the GI50 was inactive: > 100 µM.
With `O=C(NNC(=S)Nc1ccccc1)c1csc(NC(=S)NC2CCCCC2)n1`, the GI50 is inactive: > 100 µM.
Next, `CN(/N=C/c1ccccn1)C1=NCCN1`: inactive: > 100 µM.
Turning to `Cc1cccc(C(C)(C)C)c1NC(=O)CCc1nnc(S)[nH]1`, the GI50 is inactive: > 100 µM.
`O=C1C=C(Nc2ccc(S(=O)(=O)Nc3ncccn3)cc2)c2ccccc2C1=O`: the GI50 was inactive: 20.2 µM.
As for `CCCCCC(=O)C(C)C1=Nc2nnc(CCCCCCCc3nnc4n3C(=O)C(C(C)C(=O)CCCCC)=N4)n2C1=O` (centres undefined), the GI50 was inactive: > 100 µM.
The result for `O=[N+]([O-])c1ccc(-n2nc3ccc4nonc4c3n2)cc1` reads inactive: 46.9 µM.
Regarding `COc1ccc2[nH]cc(CCNC(=O)[C@H](Cc3ccccc3)NC(=O)[C@@H](NCC(F)(F)F)C(C)C)c2c1`, the GI50 is inactive: 20.7 µM.
The result for `Cc1[nH]c2ncn3ncnc3c2c1Cc1ccccc1` reads inactive: > 100 µM; that for `O=c1c2ccccc2nc(-c2ccccc2Cl)n1NCC1(O)OCC(O)C(O)C1O` (centres undefined), inactive: > 100 µM.
As to `CCOc1ccc2nc(NC(=O)C(=O)C(C(=O)c3ccccc3-c3ccccc3)C3OC(=O)c4ccccc43)sc2c1` (centres undefined), the GI50 is inactive: 19.7 µM.
Next, `CCOC(=O)c1ncn(CCc2ccc(Cl)cc2)c1C`: inactive: > 100 µM.
With `O=S(O)c1cc(Cl)cc(Cl)c1O`, the GI50 is inactive: > 100 µM.
For the molecule `CSc1c(C#N)c(O)n(-c2ccc(C)cc2)c(=O)c1C#N`, the GI50 is inactive: > 100 µM.
The result for `COc1ccc(OC2OC(COC(c3ccccc3)(c3ccc(OC)cc3)c3ccc(OC)cc3)C(O)C(O)C2O)cc1` (centres undefined) reads inactive: 6.87 µM; that for `O=C(O)C1CC2CC(=O)C1C2` (centres undefined), inactive: > 100 µM.
Next, `CCCCCCCCC/C=C1\CC(CO)(COC(=O)c2ccccc2)OC1=O` (centres undefined): inactive: 27.7 µM.
Next, `c1ccc([B-]2(c3ccccc3)NCCCO2)cc1`: inactive: 84.9 µM; `CC[C@]1(O)CC(OC2CC(N(C)C)C(O)C(C)O2)c2c(cc3c(c2O)C(=O)c2c(O)cccc2C3=O)[C@@H]1C(=O)OC` (some centres undefined): active: 0.176 µM; `CC(C)C1NC(=O)[C@H](C)OC(=O)[C@@H](C(C)C)NC(=O)[C@@H](C)OC(=O)C(C(C)C)NC(=O)[C@H](C)OC1=O` (some centres undefined): inactive: > 100 µM.
Turning to `Cc1cccc(-c2cc(O)c3c(C)ccnc3n2)c1`, the GI50 was active: 0.541 µM.
Next, `COc1cc2c(cc1O)Cc1c-2[n+](C)cc2cc(OC)c(OC)cc12`: inactive: > 100 µM; `COc1cc2c(/C=C3/C(=O)N(c4ccccc4)c4ccccc43)c(Cl)[nH]c2cc1C`: inactive: 3.33 µM.

These data come from ChEMBL document CHEMBL1201862, “PubChem BioAssay data set” (2004).
